Measurements: the GPR68 mutational scans of Howard et al. (2025)
The least precise scores are not listed. Not listed are two conditions whose scores span a narrow range. In variant names, del marks residues removed and ins residues inserted between the two positions. For some of these results: The concentration of ogerin is not given here.

B1: GPR68, Q15743 (parent)
chain: MGNITADNSSMSCTIDHTIHQTLAPVVYVTVLVVGFPANCLSLYFGYLQIKARNELGVYLCNLTVADLFYICSLPFWLQYVLQHDNWSHGDLSCQVCGILLYENIYISVGFLCCISVDRYLAVAHPFRFHQFRTLKAAVGVSVVIWAKELLTSIYFLMHEEVIEDENQHRVCFEHYPIQAWQRAINYYRFLVGFLFPICLLLASYQGILRAVRRSHGTQKSRKDQIQRLVLSTVVIFLACFLPYHVLLLVRSVWEASCDFAKGVFNAYHFSLLLTSFNCVADPVLYCFVSETTHRDLARLRGACLAFLTCSRTGRAREAYPLGAPEASGKSGAQGEEPELLTKLHPAFQTPNSPGSGGFPTGRLA

What was measured:
[1] = variants of: B1; assay: cAMP reporter score (Enrich2 score, wild type = 0); higher = more signal; HEK293T, FACS bins; settings: modulator: ogerin
[2] = variants of: B1; assay: surface expression score (Enrich2 score, wild type = 0); higher = more signal; HEK293T, FACS bins

MGNITADNSSMSCTIDHTIHQTLAPVVYVTVLVVGFPANCLSLYFGYLQIKARNELGVYLCNLTVADLFYICSLPFWLQYVLQHDNWSHGDLSCQVCGILLYENIYISVGFLCCISVDRYLAVAHPFRFHQFRTLKAAVGVSVVIWAKELLTSIYFLMHEEVIEDENQHRVCFEHYPIQAWQRAINYYRFLVGFLFPICLLLASYQGILRAVRRSHGTQKSRKDQIQRLVLSTVVWFLACFLPYHVLLLVRSVWEASCDFAKGVFNAYHFSLLLTSFNCVADPVLYCFVSETTHRDLARLRGACLAFLTCSRTGRAREAYPLGAPEASGKSGAQGEEPELLTKLHPAFQTPNSPGSGGFPTGRLA [I236W]
cAMP reporter score ([1]; pH 6): 0.697
surface expression score [2]: -2.83

MGNITADNSSMSCTIDHTIHQTLAPVVYVTVLVVGFPANCLSLYFGYLQIKARNELGVYLCNLTVADLFYICSLPFWLQYVLQHDNWSHGDLSCQVCGILLYENIYISVGFLCCISVDRYLAVAHPFRFHQFRTLKAAVGVSVVIWAKELLTSIYFLMHEEVIEDENQHRVCFEHYPIQAWQRAINYYRFLVGFLFPICLLLASYQGILRAVRRSHGTQKSRKDQIQRLVLSTVVIFRACFLPYHVLLLVRSVWEASCDFAKGVFNAYHFSLLLTSFNCVADPVLYCFVSETTHRDLARLRGACLAFLTCSRTGRAREAYPLGAPEASGKSGAQGEEPELLTKLHPAFQTPNSPGSGGFPTGRLA [L238R]
cAMP reporter score ([1]; pH 6): -1.27
cAMP reporter score ([1]; pH 6.5): -0.859
surface expression score [2]: -3.14

A239_C240insGS
cAMP reporter score ([1]; pH 6): -2.6
cAMP reporter score ([1]; pH 6.5): -1.53
surface expression score [2]: -1.41

MGNITADNSSMSCTIDHTIHQTLAPVVYVTVLVVGFPANCLSLYFGYLQIKARNELGVYLCNLTVADLFYICSLPFWLQYVLQHDNWSHGDLSCQVCGILLYENIYISVGFLCCISVDRYLAVAHPFRFHQFRTLKAAVGVSVVIWAKELLTSIYFLMHEEVIEDENQHRVCFEHYPIQAWQRAINYYRFLVGFLFPICLLLASYQGILRAVRRSHGTQKSRKDQIQRLVLSTVVIFLACFLPYHVLLLVRSVWEASCDCAKGVFNAYHFSLLLTSFNCVADPVLYCFVSETTHRDLARLRGACLAFLTCSRTGRAREAYPLGAPEASGKSGAQGEEPELLTKLHPAFQTPNSPGSGGFPTGRLA [F260C]
cAMP reporter score ([1]; pH 6): -2.66
cAMP reporter score ([1]; pH 6.5): -1.52
surface expression score [2]: 0.506

MGNITADNSSMSCTIDHTIHQTLAPVVYVTVLVVGFPANCLSLYFGYLQIKARNELGVYLCNLTVADLFYICSLPFWLQYVLQHDNWSHGDLSCQVCGILLYENIYISVGFLCCISVDRYLAVAHPFRFHQFRTLKAAVGVSVVIWAKELLTSIYFLMHEEVIEDENQHRVCFEHYPIQAWQRAINYYRFLVGFLFPICLLLASYQGILRAVRRSHGTQKSRKDQIQRLVLSTVVIFLACFLPYHVLLLVRSVWEASCDDAKGVFNAYHFSLLLTSFNCVADPVLYCFVSETTHRDLARLRGACLAFLTCSRTGRAREAYPLGAPEASGKSGAQGEEPELLTKLHPAFQTPNSPGSGGFPTGRLA [F260D]
cAMP reporter score ([1]; pH 6): 0.697
cAMP reporter score ([1]; pH 6.5): 0.31
surface expression score [2]: -0.412

MGNITADNSSMSCTIDHTIHQTLAPVVYVTVLVVGFPANCLSLYFGYLQIKARNELGVYLCNLTVADLFYICSLPFWLQYVLQHDNWSHGDLSCQVCGILLYENIYISVGFLCCISVDRYLAVAHPFRFHQFRTLKAAVGVSVVIWAKELLTSIYFLMHEEVIEDENQHRVCFEHYPIQAWQRAINYYRFLVGFLFPICLLLASYQGILRAVRRSHGTQKSRKDQIQRLVLSTVVIFLACFLPYHVLLLVRSVWEASCDFATGVFNAYHFSLLLTSFNCVADPVLYCFVSETTHRDLARLRGACLAFLTCSRTGRAREAYPLGAPEASGKSGAQGEEPELLTKLHPAFQTPNSPGSGGFPTGRLA [K262T]
cAMP reporter score ([1]; pH 6): 2.51
surface expression score [2]: 0.143

MGNITADNSSMSCTIDHTIHQTLAPVVYVTVLVVGFPANCLSLYFGYLQIKARNELGVYLCNLTVADLFYICSLPFWLQYVLQHDNWSHGDLSCQVCGILLYENIYISVGFLCCISVDRYLAVAHPFRFHQFRTLKAAVGVSVVIWAKELLTSIYFLMHEEVIEDENQHRVCFEHYPIQAWQRAINYYRFLVGFLFPICLLLASYQGILRAVRRSHGTQKSRKDQIQRLVLSTVVIFLACFLPYHVLLLVRSVWEASCDFAKGVFNAYHFSLLGTSFNCVADPVLYCFVSETTHRDLARLRGACLAFLTCSRTGRAREAYPLGAPEASGKSGAQGEEPELLTKLHPAFQTPNSPGSGGFPTGRLA [L274G]
cAMP reporter score ([1]; pH 6): -2.27
cAMP reporter score ([1]; pH 6.5): -1.98
surface expression score [2]: -3.06
